# Reference: article PMC6901573 (2019)
# Assays:
# Test in all cases: SPR
# α-semi-methemoglobin = α-semi-methemoglobin (Homo sapiens, UniProt P69905)
# β-semi-methemoglobin = β-semi-methemoglobin (Homo sapiens, UniProt P69905)
# methemoglobin = methemoglobin (Homo sapiens, UniProt P69905)
# Sequence of methemoglobin (P69905 2-142, chain 1 of 2): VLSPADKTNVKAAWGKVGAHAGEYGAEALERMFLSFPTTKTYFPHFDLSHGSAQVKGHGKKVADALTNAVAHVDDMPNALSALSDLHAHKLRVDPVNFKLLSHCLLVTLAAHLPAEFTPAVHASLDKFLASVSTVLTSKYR
# Sequence of methemoglobin (chain, as listed by the source, chain 2 of 2): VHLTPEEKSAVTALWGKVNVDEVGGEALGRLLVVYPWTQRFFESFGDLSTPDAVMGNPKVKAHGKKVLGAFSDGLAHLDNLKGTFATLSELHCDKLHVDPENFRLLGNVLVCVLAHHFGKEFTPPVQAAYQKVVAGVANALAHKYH
# Sequence of β-semi-methemoglobin (P69905 2-142, chain 1 of 2): as the sequence (P69905 2-142, chain 1 of 2) above
# Sequence of β-semi-methemoglobin (chain, as listed by the source, chain 2 of 2): as the sequence (chain, as listed by the source, chain 2 of 2) above
# Sequence of α-semi-methemoglobin (P69905 2-142, chain 1 of 2): as the sequence (P69905 2-142, chain 1 of 2) above
# Sequence of α-semi-methemoglobin (chain, as listed by the source, chain 2 of 2): as the sequence (chain, as listed by the source, chain 2 of 2) above
binder,measurement,setting,value
"IsdB (protein, met heme in alpha only) not shown",Kd,α-semi-methemoglobin,108 nM
"IsdB (protein, met heme in beta only) not shown",Kd,β-semi-methemoglobin,91 nM
"IsdB (protein, met heme) not shown",Kd,methemoglobin,70 nM
